# Laboratory results as given in PubChem BioAssay AID493208 (National Center for Advancing Translational Sciences (NCATS), 2011).
# In all, about 44,000 compounds went through this assay and about 340 (0.77%) were called active. Not shown: some 5% with an inconclusive outcome. Calls come from the whole dose curve; as a rule, active = well fitted inhibition curve with a large enough effect; inconclusive = small, poorly fitted or top-dose-only effect; inactive = flat fitted curve, though single readings scatter. The list shows a part of the results.
# Assay: Acumen qHTS Assay for Inhibitors of the mTORC1 Signaling Pathway in MEF (Tsc2-/-, p53-/-) Cells: Sytravon;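 note: plate controls were DMSO for no effect and rapamycin for full effect; nearly all actives have a fitted effect of over 50% in size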
# Conditions: phospho-rpS6 immunofluorescence/PI, 24 h; series mostly up to 38.3 µM; activity change, negative = inhibition: at the top concentration
# Procedure, shortened: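 Immunofluorescence of rpS6 phosphorylation in Tsc2-/-, p53-/- MEFs after 24 h compound exposure, normalized to propidium iodide signal. Activity is expressed as % positive cells, thresholded with 7.5 nM rapamycin.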
row,Structure (SMILES),"activity change, negative = inhibition"
1,COc1cccc(CNC(=O)CCNS(=O)(=O)c2ccc3c(c2)CCCC(=O)N3)c1,inactive: -2.82%
2,CC1=C(C(=O)Nc2ccccc2)C(c2cccs2)n2nc(SCc3ccccc3)nc2N1 (configuration not stated),inactive: 0.185%
3,O=C(Nc1c2c(nn1-c1ccc(Cl)cc1)CS(=O)(=O)C2)c1cccc(Cl)c1,inactive: -0.361%
4,CCc1cccc(NC(=O)CN2c3ccccc3S(=O)(=O)c3ccccc32)c1,inactive: -11.2%
5,CC(=O)N1c2ccc(S(=O)(=O)NCCC(=O)Nc3ccc(C)cc3Br)cc2CC1C (configuration not stated),inactive: -19.5%
6,O=C(CSc1ccc2nnc(CCNS(=O)(=O)c3ccccc3)n2n1)Nc1ccccc1C(F)(F)F,inactive: 1.93%
7,Cc1ccc(CNC(=O)Cn2ccn(-c3cc(C)cc(C)c3)c(=O)c2=O)cc1,inactive: 4%
8,COc1ccccc1NC(=O)Cn1nc(C)n2cccc2c1=O,inactive: -6.44%
9,COc1ccc(OC)c(NC(=O)c2cc3cc4ccc(C)cc4nc3s2)c1,inactive: -0.276%
10,CCOc1ccc(-c2cc(NC(=O)Nc3ccccc3C(F)(F)F)c(C(=O)OC)s2)cc1,inactive: -12.5%
11,COC(=O)c1ccc(Cn2c(SCC(=O)Nc3ccc(F)cc3)nc3ccccc32)cc1,inactive: 0%
12,Cc1ccc(N2CC(C(=O)NCc3nnnn3-c3ccc(C)c(C)c3)CC2=O)cc1 (configuration not stated),inactive: 5.39%
13,CCCCN(CC)Cc1ccc(CNS(=O)(=O)c2cc3c(cc2Cl)NC(=O)CO3)o1,inactive: -14.6%
14,CCOc1ccc(NC(=O)Cn2c(=O)n(Cc3ccc(C(=O)NCc4ccc5c(c4)OCO5)cc3)c(=O)c3ccccc32)cc1,inactive: -10.4%
15,CCCCOc1ccc(C(=O)Nc2ccc3c(c2)CCCN3S(=O)(=O)c2ccc(C)cc2)cc1,inactive: 4.25%
16,CCOc1ccc(NC(=O)Cn2c(=O)cc(C)c3c(C)nn(-c4ccc(CC)cc4)c32)cc1,inactive: -2.13%
17,COc1ccc(C(=O)Nc2ccccc2C(=O)OCc2cc(=O)n3nc(C4CC4)sc3n2)cc1,inactive: 1.44%
18,CCOC(=O)N1CCc2c(sc3c2c(=O)n(-c2ccc(CC)cc2)c(=O)n3Cc2cc(C)ccc2C)C1,inactive: -4.81%
19,CCOc1ccccc1NC(=O)C1CCCN(S(=O)(=O)c2cn(C)cn2)C1 (configuration not stated),inactive: 0%
20,CCOC(=O)c1c(C)oc2nc(C)nc(Nc3cc(C)ccc3OC)c12,inactive: 0%
21,CCc1nnc(NC(=O)CSc2nc3c([nH]c4ccccc43)c(=O)n2-c2ccc(OC)cc2)s1,inactive: -2.61%
22,O=C(C1CCCCC1)N(Cc1cccnc1)c1nc2ccc(F)cc2s1,inactive: 0.444%
23,CCc1cccc(NC(=O)COc2cc(=O)n(CC)c3ccccc23)c1,inactive: -6.68%
24,Cn1ccc2cc(S(=O)(=O)N3CCN(C(=O)Nc4ccccc4F)CC3)ccc21,inactive: -10.9%

row,Structure (SMILES),"activity change, negative = inhibition"
1,Nc1nc(N)c(S(=O)(=O)c2ccccc2)c(Nc2ccc(F)cc2)n1,inactive: 2.74%
2,CCOC(=O)c1c(Nc2cccc(C)c2)nnc(-c2ccccc2)c1-c1ccccc1,inactive: -3.45%
3,CCCc1cc(=O)[nH]c(Nc2ccc(O)cc2C)n1,inactive: -1.01%
4,O=C(CSc1nc2ccccc2nc1Cc1ccccc1)N1CCCc2ccccc21,inactive: 4.76%
5,CCOC(=O)c1cccc(NC(=O)c2sc3nc[nH]c(=O)c3c2C)c1,inactive: 4.13%
6,COc1cc(-c2ccno2)ccc1S(=O)(=O)N1CCN(c2ccc(F)cc2)CC1,inactive: -0.196%
7,CCc1ccc2occ(CC(=O)N(Cc3ccc(N(C)C)cc3)C3CCS(=O)(=O)C3)c2c1 (configuration not stated),inactive: 4.34%
8,CCOC(=O)N1CCC(NC(=O)c2ccc3c(c2)N(Cc2ccc(Cl)cc2)C(=O)c2ccccc2S3=O)CC1 (configuration not stated),inactive: -26.9%
9,Cc1cccc(N(C)S(=O)(=O)c2nnc(NC(=O)C3CCCCC3)s2)c1,inactive: -1.87%
10,CCNc1sc(S(C)(=O)=O)nc1S(=O)(=O)c1ccc(C)cc1,inactive: -3.93%
11,CCCCc1nn2c(=O)cc(COC(=O)c3cccs3)nc2s1,inactive: -6.15%
12,Cc1ccc(Cn2c(=O)n(Cc3ccccc3Cl)c(=O)c3cccnc32)cc1,inactive: -7.2%
13,Cn1c(=O)n(C)c2cc(N3CCCC3)c(NC(=O)Nc3ccccc3)cc21,inactive: -4.58%
14,Clc1cccc(-n2ncc3c(N4CCCCCC4)ncnc32)c1,inactive: 2.4%
15,Cc1cc(C(=O)N2CCN(c3cc(Cl)ccc3C)CC2)c2c(C)nn(-c3ccccc3)c2n1,inactive: 1.03%
16,CCc1ccc(NC(=O)CCNC(=O)Cn2cnc3ccccc3c2=O)cc1,inactive: 5.52%
17,Cc1ccc(CNC(=O)c2cccc(Nc3nc4ccccc4n4nnnc34)c2)cc1,inactive: -0.0531%
18,Cc1ccc(NC(=O)Cn2ncn3c(cc4ccccc43)c2=O)cc1C,inactive: -3.41%
19,COC(=O)c1ccccc1NC(=O)Cn1c(=O)n(CCCCC(=O)NCc2ccc3c(c2)OCO3)c(=O)c2ccccc21,inactive: 6.84%
20,COc1cc(OC)c(NC(=O)c2c(C)oc3ncnc(N4CCCCC4)c23)cc1Cl,inactive: 6.8%
21,Cc1ccc(N2CCN(c3nc4ccccc4c4nnc(C)n34)CC2)c(C)c1,inactive: -1.16%
22,Cn1c(=O)c2c(nc(N3CCOCC3)n2Cc2ccccc2)n(C)c1=O,inactive: -0.064%
23,CCOC(=O)c1c(C)[nH]c(C)c1S(=O)(=O)N(C)CC(=O)N1CCN(c2cccc(Cl)c2)CC1,inactive: 1.83%
